Laboratory results reported in publication PMC12136788.
Some of the results follow.

B1: chr5:96760809:96763199:-|three_prime_utr|ENSG00000164307|control|control|control (ssRNA)
RNA: GGGAGUUCUACAGUCCGACGAUCAGAAUCUCAGACUACAGCACUAAAUAUGCUUUGAUGCUACAUCAAACGGAAUGGAAGCAUAGCUGACUUCGCUAAAGUUACUUCAUCUCCAUCUAGCAAAUGAGGCACUGUUCUCAACCACAACAGAGGAUUGAGCAUCA
B2: chr4:140550230:140550341:+|CDS|ENSG00000179387|unk|FALSE|unique (ssRNA)
RNA: GGGAGUUCUACAGUCCGACGAUCGAAUUUGACAAGUUUUGGUUUGAAGAAGAACCAGAAAGCAUUAUGUAUUUCAAUUUGUAUAGAGAGAAGUUUCAUGAAAAGAUUAAAGGACUUUUACUGGAUUGUAAUGUAGCACUUACUCAACAGAGGAUUGAGCAUCA
B3: chr1:64832709:64832810:+|3pUTR|ENSG00000162437|msi1|FALSE|bound_elsewhere (ssRNA)
RNA: GGGAGUUCUACAGUCCGACGAUCACAGCUAGAAAGUUUAAGGUAAUUUCUAAGUAUACUACCUAUAAGUAACUGAUAAGAAUUAGGCAUCAUUCAGUGAUAUAGCAGAUGACUAAUGGGUUUUUCAGGCCCUGCACUUCUCUUCAACAGAGGAUUGAGCAUCA
B4: chr15:65327126:65328908:-|three_prime_utr|ENSG00000174498|control|control|control (ssRNA)
RNA: GGGAGUUCUACAGUCCGACGAUCUGAACUAACAUUUUUCUUUAAAAAGCAAAACUUAAAAAAAAAAAAAAAGAGGAGAGAGAUAGAGGAAGGUGAAUUAGACUCCAAAAGAUGACCCUGCUGUAGCUGGGCCCUGACACUGUCCAACAGAGGAUUGAGCAUCA
B5: chr4:174259701:174259819:-|CDS|ENSG00000164117|unk|FALSE|unique (ssRNA)
RNA: GGGAGUUCUACAGUCCGACGAUCAAAUCCACUUGGGGUCACUGUUCCAUAUACAAUAAGAACCCACCUUUAGGAUUUUCUUUUAGAAAAUUGUAUAUGCAGCUGGAUGAAGGCAGCCUCACCUUUAAUGCCAACCCAGAUGAGCAACAGAGGAUUGAGCAUCA
B6: chr3:11557161:11557262:-|3pUTR|ENSG00000144560|msi1|total|mutant (ssRNA)
RNA: GGGAGUUCUACAGUCCGACGAUCCCUCUGACUUUAUACUGUUAUUACUGCAUUUAUUAUUUGCUAUAUUAACCGCUACUAACCCGAAAUCCGAUGAAGCAAGCAUGACAGACACAGCUGUGGAGGUCACAGCUGCUCCUUUUUCAACAGAGGAUUGAGCAUCA
B7: chr1:113590523:113590624:+|CDS|ENSG00000081026|unk|FALSE|unique (ssRNA)
RNA: GGGAGUUCUACAGUCCGACGAUCUCAUCUGACUGGAUGAAGACUGUUCCAAGUUACAACCAAACAAAUAGCUCCAUGGACUUUAGAAAUUAUAUGAUGAGAGAUGAGACUCUGGAACCACUGCCCAAAAACUGGGAAAUGGCCCAACAGAGGAUUGAGCAUCA
B8: chr1:17826356:17826472:+|CDS|ENSG00000117148|unk|FALSE|unique (ssRNA)
RNA: GGGAGUUCUACAGUCCGACGAUCAGGGAGCUGAUGGGGGAUCACGUCUCCUCCACCAAGGCCACAGUCUGGGAGGGUUCCAAUAGAAACUUUAGUGUCUGGCUAGGAGCGUCCGUGGUGGCUCACCUUUCUACCUACCAGUCUCAACAGAGGAUUGAGCAUCA
B9: chr2:96375651:96375752:+|3pUTR|ENSG00000121152|unk|total|mutant (ssRNA)
RNA: GGGAGUUCUACAGUCCGACGAUCAUUGACUAAGACAGUGGGUAUGCAAGAUAAGUUUAUUUUAUAUAAAAUACUUUGGGAAGCCGGUGUUCCCGGACUGGUGUGACAGUUCCAUGAAAUUAUGAGAGACCGGGGAUCCUUCCACAACAGAGGAUUGAGCAUCA
B10: chr11:27368498:27368690:-|CDS|ENSG00000205213|msi1|FALSE|unique (ssRNA)
RNA: GGGAGUUCUACAGUCCGACGAUCACCCCUUUGUUUGCCAUUUCCUACAGGUGAAACGCCAUCAUUAGGAUUCACUGUAACGUUAGUGCUAUUAAACUCACUAGCAUUUUUAUUAAUGGCCGUUAUCUACACUAAACUAUACUGCAACAGAGGAUUGAGCAUCA
B11: chr2:96301550:96301651:-|CDS|ENSG00000144028|msi1|total|mutant (ssRNA)
RNA: GGGAGUUCUACAGUCCGACGAUCAAGGCGAAAGGAGAUUGACCUGCUGCUGGGUCAAACAGAUGAUACCAGAUACCAUGUGCCCGUGAACCUGGGCAAAAAGAUCACAGACUAUGGUGGAGAUAAGGAAAUCCAAAAUAUGGGCAACAGAGGAUUGAGCAUCA
B12: chr12:48145849:48145950:+|3pUTR|ENSG00000152556|msi1|total|mutant (ssRNA)
RNA: GGGAGUUCUACAGUCCGACGAUCCAUGACCAGUUCUGGCCAGGAGCUGGAGGAGCAGGCAGUGGGUGGGAGCUCCUUUCCGGCCGAAUUUAACAUGACUUCUGCCCCAGCUUUAUCUGUCACACAAGGCUGGGCACCUCCCGUCAACAGAGGAUUGAGCAUCA
B13: chr1:62654060:62654161:-|CDS|ENSG00000116641|unk|FALSE|unique (ssRNA)
RNA: GGGAGUUCUACAGUCCGACGAUCCUUGUUUUCUACCCAUCUCUUAUCCCAACUUUUUACAAAGGUGCCCCUUACCGAAGCAGUAGAUCCAGUGGAUUUGGAAGAUUACCUCAUUACUCAUCCUUUGGCUGUGGAUUCUGGGCCCAACAGAGGAUUGAGCAUCA
B14: chr4:106367042:106367435:-|CDS|ENSG00000250298|control|control|control (ssRNA)
RNA: GGGAGUUCUACAGUCCGACGAUCUUGUAGCCUGGGCCGCAGUUGUCACCUCCACAGCUUCAUGCGUCGAGGUGGGCUAGAGGUAGCCCUGCAGGUCCAGGUGUUGGACACUCCAGGUUAUCCACACAGCAGGCUGAGCAAGAACAACAGAGGAUUGAGCAUCA
B15: chr1:111117940:111118053:-|3pUTR|ENSG00000156171|unk|total|mutant (ssRNA)
RNA: GGGAGUUCUACAGUCCGACGAUCAGGCUGACAGUAACACUGAUGAAUGCUGAUAAUCAGGAAACAUGAAAGAAGCCAUUUGACCGAUUAUUCUAAAGGAUAUCAUCAAGAAGACUAUUAAAAACACCUAUGCCUAUACUUUUUCAACAGAGGAUUGAGCAUCA
B16: chr17:41502224:41502594:-|three_prime_utr|ENSG00000171401|control|control|control (ssRNA)
RNA: GGGAGUUCUACAGUCCGACGAUCCACGUCUGGAGCAGGAGAUCGCCACCUACCGCAGCCUGCUCGAGGGCCAGGACGCCAAGUAGGUCCUCUCCAGCCUCUUUCUUAGGAUAGUGACUGCAGGACCCGUGGGUGUCAGAGCAGCAACAGAGGAUUGAGCAUCA
B17: chr3:111884732:111884833:+|CDS|ENSG00000144824|msi1|total|mutant (ssRNA)
RNA: GGGAGUUCUACAGUCCGACGAUCCUUCAACCCAAGUUAACCCGACACAAGGAGCUUGCAUCUGAAAACAUCAAUUUGAGAACCCGGAAGUACUCCAGCAGCAGCCUGAGUCACAUGGGAGCCUACAGCCGAUCACUUCCCAGGCAACAGAGGAUUGAGCAUCA
B18: chr17:63832812:63832858:-|3pUTR|ENSG00000108604|msi1_unk|total|mutant (ssRNA)
RNA: GGGAGUUCUACAGUCCGACGAUCCCAGCCCUGGAGCCUGGAGGGAGACCACCCUCUGGGUCCUUGCUGGGGCCGCAGACACGCCGGCUGGGGUGAGGAGUGUCUGCUGUCACCCUCUACUCUCCAGCUUCCGUCUUAUAAAUGCAACAGAGGAUUGAGCAUCA
B19: ENSG00000110497:stop:overlap|stop_codon|ENSG00000110497|stop_codon|NA|stop_codon (ssRNA)
RNA: GGGAGUUCUACAGUCCGACGAUCUGGAUGGUGGCAGCAGCAGGGGGGACGCUGCAGGCCCUAGGGGAGAACCACGGAACAGGUAGAGACAAACGUUGCACUGGUGCCUCCCCUCGAACCGCCAAGCAGAAACCGGACCUCACACAACAGAGGAUUGAGCAUCA
B20: chr3:58172026:58172127:+|3pUTR|ENSG00000136068|msi1|FALSE|unique (ssRNA)
RNA: GGGAGUUCUACAGUCCGACGAUCGGCAGACCUUUAGGUUUUGCUGCUUAGUCCUGAGGAAGUGGCCACUCUUGUGGCAGGUGUAGUAUCUGGGGCGAGUGUUGGGGGUAAAAGCCCACCCUACAGAAAGUGGAACAGCCCGGACAACAGAGGAUUGAGCAUCA
B21: chr1:54779711:54781242:-|three_prime_utr|ENSG00000006555|control|control|control (ssRNA)
RNA: GGGAGUUCUACAGUCCGACGAUCGGGACCCCGCCCAGGCCCCGCCCAGCUGAUGGGACCAGGUCCGGAUGGACUCCCUGCCUUAGGCUGACCUGGGAGCGGAGCCAGUUCGAUUCUUGGUCGGGAAUUGUGAAUGGGGAUGUUCAACAGAGGAUUGAGCAUCA
B22: chr10:91942452:91942553:+|CDS|ENSG00000095564|unk|total|mutant (ssRNA)
RNA: GGGAGUUCUACAGUCCGACGAUCAGUUCUAUGGAAGAUUCACCUACUACAGAGCGAUUGAAUUUUGACAGAUUUGAUAUAUGCCGAUUGUUACAACAUGGUGCAUCACUCCUGGGAUCUGCUGGUGCCGAAUUUGAAGUCCAACAACAGAGGAUUGAGCAUCA

biological target: MSI1 full-length (mouse, UniProt Q61474 1-362); experiment: nsRBNS (natural sequence RNA bind-n-seq); RBNS binding buffer (assumed for nsRBNS): 25 mM Tris pH 7.5, 150 mM KCl, 3 mM MgCl2, 0.01% Triton X-100, 500 ug/ml BSA, 20 U/ml SUPERase-In, 4 C; UNK is unkempt and MSI1 is Musashi-1; names of the RNAs are library labels; protein concentration not given here; high values mean tight binding
Sequence of UniProt Q61474 (Q61474 whole entry): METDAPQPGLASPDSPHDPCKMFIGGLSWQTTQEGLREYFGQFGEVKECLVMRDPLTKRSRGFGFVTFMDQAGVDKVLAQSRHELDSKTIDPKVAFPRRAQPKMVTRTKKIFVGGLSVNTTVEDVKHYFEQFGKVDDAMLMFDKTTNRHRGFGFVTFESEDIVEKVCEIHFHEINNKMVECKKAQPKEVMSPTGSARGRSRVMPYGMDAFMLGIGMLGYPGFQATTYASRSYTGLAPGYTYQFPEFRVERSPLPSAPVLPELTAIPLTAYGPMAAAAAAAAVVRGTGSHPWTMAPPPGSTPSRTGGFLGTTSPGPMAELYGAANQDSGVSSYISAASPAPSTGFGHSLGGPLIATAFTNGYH

Binder	binding signal [enrichment R]
B1	0.299
B2	1.57
B3	6.13
B4	1.12
B5	0.631
B6	0.732
B7	0.708
B8	1.17
B9	0.62
B10	1.09
B11	0.411
B12	0.378
B13	0.626
B14	0.439
B15	0.337
B16	0.46
B17	0.457
B18	0.292
B19	0.547
B20	0.549
B21	0.416
B22	0.269
